From patent US20110312518

Molecular target: T1, Abltide EAIYAAPFAKKK (biotin-conjugated, Millipore #12-539)
T1 chain: EAIYAAPFAKKK

B1: Abl kinase (Millipore #[…]) (protein)
chain: EALQRPVASDFEPQGLSEAARWNSKENLLAGPSE[skipping about 60 residues]LEKHSWYHGPVSRNAAEYLLSSGINGSFLVRESESSPGQRSISLRYEGRVYHYRINTASDGKLYVSSESRFNTLAELVHHHSTVADGLITTLHYPAPKRNKPTVYGVSPNYDKWEMERTDITMKHKLGGGQYGEVYEGVWKKYSLTVAVKTLKEDTMEVEEFLKEAAVMKEIKHPNLVQLLGVCTREPPFYIITEFMTYGNLLDYLRECNRQEVNAVVLLYMATQISSAMEYLEKKNFIHRDLAARNCLVGENHLVKVADFGLSRLMTGDTYTAHAGAKFPIKWTAPESLAYNKFSIKSDVWAFGVLLWEIATYGMSPYPGIDLSQVYELLEKDYRMERPEGCPEKVYELMRACWQWNPSDRPSFAEIHQAFETMFQESSISDEVEKELGKQGVRGAVSTLLQAPELPTKTRTSRRAAEHRDTTDVPEMPHSKGQGESDPLDHEPAVSPLLPRKERGPPEGGLNEDERLLPKDKKTNLFSALIKKKKKTAPTPPKRSSSFREMDGQPERRGAGEEEGRDISNGALAFTPLDTADPAKSPKPSNGAGVPNGALRESGGSGFRSPHLWKKSSTLTSSRLATGEEEGGGSSSKRFLRSCSASCVPHGAKDTEWRSVTLPRDLQSTGRQFDSSTFGGHKSEKPALPRKRAGENRSDQVTRGTVTPPPRLVKKNEEAADEVFKDIMESSPGSSPPNLTPKPLRRQVTVAPASGLPHKEEAGKGSALGTPAAAEPVTPTSKAGSGAPGGTSKGPAEESRVRRHKHSSESPGRDKGKLSRLKPAPPPPPAASAGKAGGKPSQSPSQEAAGEAVLGAKTKATSLVDAVNSDAAKPSQPGEGLKKPVLPATPKPQSAKPSGTPISPAPVPSTLPSASSALAGDQPSSTAFIPLISTRVSLRKTRQPPERIASGAITKGVVLDSTEALCLAISRNSEQMASHSAVLEAGKNLYTFCVSYVDSIQQMRNKFAFREAINKLENNLRELQICPATAGSGPAATQDFSKLLSSVKEISDIVQR
Current limit of detection (kinase assay, 96-well plate format): 10 pM
